Test results from the supplement of paper PMC10502849.
Where a name gives a salt, the structure may show the parent alone. The list shows a part of the results. Many values rest on one well or one pass, so single values are uncertain.

Legend:
[1] = tested on: H9 teratoma-derived LAM model cells, TSC2-/-; assay: percent SyTOX+ dead cells; higher = more cytotoxic; details: 5 µM, treatment time 72 h, culture: 3D hyaluronic acid hydrogel
[2] = tested on: H9 teratoma-derived LAM model cells, WT; assay: percent SyTOX+ dead cells; higher = more cytotoxic; details: 5 µM, treatment time 72 h, culture: 3D hyaluronic acid hydrogel, genotype: WT
[3] = tested on: H9 teratoma-derived LAM model cells, TSC2-/-; assay: percent of cells invaded past median invasion distance of vehicle control; LAM is lymphangioleiomyomatosis; the cells come from teratomas of the human stem cell line H9; higher = more invasion; extreme values may be limits of the assay; details: 5 µM, treatment time 72 h, culture: 3D hyaluronic acid hydrogel
[4] = tested on: H9 teratoma-derived LAM model cells, WT; assay: as above; details: 5 µM, treatment time 72 h, culture: 3D hyaluronic acid hydrogel, genotype: WT
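For percent SyTOX+ dead cells in this document: cells seeded atop a hyaluronic acid gel crosslinked via MMP-cleavable peptides, containing vitronectin peptides and methylcellulose, imaged live by high-content microscopy with automated analysis, one technical replicate per compound.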
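For percent of cells invaded past median invasion distance of vehicle control in this document: live cells imaged by high content microscopy and scored with in-house automated image analysis, one technical replicate per compound in each genotype and rapamycin condition.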

SMILES | percent SyTOX+ dead cells ([1]; rapamycin 0 nM) | percent SyTOX+ dead cells ([1]; rapamycin 20 nM) | percent SyTOX+ dead cells ([2]; rapamycin 0 nM) | percent SyTOX+ dead cells ([2]; rapamycin 20 nM) | percent ([3]; rapamycin 0 nM) | percent ([3]; rapamycin 20 nM) | percent ([4]; rapamycin 0 nM) | percent ([4]; rapamycin 20 nM)
COc1cc2ncnc(Nc3cccc(Cl)c3)c2cc1OC [Tyrphostin AG 1478 mesylate] | 17.6% | 24.3% | 7.41% | 16.3% | 9.56% | 8.41% | 0.74% | 2.48%
O=C1C(Cl)=C(NCCN2CCOCC2)C(=O)c2ncccc21 | 6.69% | 15.2% | 13.2% | 15.9% | 48.7% | 52% | 56.1% | 60.5%
c1ccc(-c2n[nH]c3c2oc2ccccc23)cc1 | 9.76% | 14.6% | 23.9% | 15.6% | 23.6% | 27.3% | 1.41% | 2.75%
O=C(CCCCCCC(=O)Nc1cccnc1)NO | 40.5% | 46% | 37.3% | 47.7% | 6.75% | 1.39% | 4.11% | 7.17%
Cc1cc(Nc2cc(CN3CCOCC3)c3nc(C)c(Cc4ccc(Cl)cc4F)n3n2)n[nH]1 | 57.5% | 47.7% | 69.8% | 82.5% | 0% | 3.18% | 0.49% | 0%
CC[C@H](CO)Nc1nc(NCc2ccccc2)c2ncn(C(C)C)c2n1 [Roscovitine, CYC202, Seliciclib] | 5.19% | 7.27% | 12.4% | 10.6% | 53.7% | 29.1% | 35.2% | 23.2%
O=c1c(O)c(-c2ccc(O)c(O)c2)oc2cc(O)cc(O)c12 [Quercetin] | 10.7% | 14.2% | 26.1% | 15.1% | 54.1% | 29% | 6.15% | 15.1%
OCCn1cc(-c2ccc3c(c2)CC/C3=N\O)c(-c2ccncc2)n1 | 12.2% | 11.9% | 16.4% | 11.5% | 20.5% | 34.7% | 18.8% | 35.4%
CN(C1CCc2c(c3ccccc3n2CC(=O)O)C1)S(=O)(=O)c1ccc(F)cc1 (configuration not stated) | 5.67% | 10.4% | 7.91% | 11.9% | 39.2% | 35.3% | 18.6% | 23.4%
COc1ccc(C(=O)CC2(O)C(=O)Nc3c(Cl)ccc(Cl)c32)cc1 (single isomer, unassigned; (-)) | 11.6% | 13.2% | 16.6% | 18.6% | 44% | 28.3% | 34.7% | 24%
O=C1c2ccc(O)c(O)c2C(=O)c2c(O)ccc(O)c21 [Quinalizarin] | 5.88% | 4.98% | 9.95% | 10.9% | 62% | 92.1% | 75.3% | 87%
COc1cc2c(Nc3ccc(NC(=O)c4ccccc4)cc3)ncnc2cc1OCCCN1CCOCC1 | 10.1% | 16.9% | 39.9% | 32.9% | 38.3% | 50% | 0.6% | 20.8%
O=C(NOCC1CC1)c1ccc(F)c(F)c1Nc1ccc(I)cc1Cl | 8.88% | 4.45% | 4.87% | 5.08% | 33.6% | 28.4% | 29.9% | 24.4%
O=C(Nc1cccc2cccnc12)c1ccc(N2C(=O)[C@@H]3[C@H](C2=O)[C@@H]2C=C[C@H]3C2)cc1 [IWR-1-endo] | 4.92% | 5.2% | 1.56% | 0.48% | 44.7% | 35.4% | 65.4% | 68.7%
CC(C)(C)c1cc(C(=O)O)c(NC(=O)Nc2ccc3[nH]ncc3c2)s1 | 2.02% | 2.71% | 8.52% | 6.85% | 86.2% | 48% | 60.6% | 27.9%
O=C(NCCCNc1nc(Nc2cccc(NC(=O)N3CCCC3)c2)ncc1I)c1cccs1 | 21.8% | 29.3% | 23.6% | 28.7% | 0% | 0.86% | 2.78% | 1.55%
CC#CC(=O)Nc1cc2c(Nc3ccc(F)c(Cl)c3)ncnc2cn1 | 10.5% | 8.54% | 15.1% | 15.8% | 10.8% | 6.1% | 20.3% | 6.42%
Cc1cccc(-c2nn(C(=S)Nc3ccccc3)cc2-c2ccnc3ccccc23)n1 | 4.93% | 15.1% | 15.9% | 12.9% | 24.1% | 9.27% | 8.47% | 11.2%
O=C(O)c1ccc(-c2c[nH]c3ncc(-c4ccccc4)cc23)cc1C1CCCC1 | 20.6% | 19.8% | 30.6% | 33.2% | 18.6% | 8.99% | 4.26% | 11.2%
O=C(CCCCCN1C(=O)c2cccc3cccc(c23)C1=O)NO | 10.9% | 10.3% | 14.7% | 16.7% | 64.6% | 56.4% | 54.9% | 42.3%
CCOc1cc2ncc(C#N)c(Nc3ccc(F)c(Cl)c3)c2cc1NC(=O)/C=C/CN(C)C [Pelitinib, EKB-569, WAY-EKB-569] | 16.9% | 13.4% | 43.2% | 40.4% | 56.1% | 16.5% | 10% | 0%
CO[C@@H](C(=O)N1Cc2[nH]nc(NC(=O)c3ccc(N4CCN(C)CC4)cc3)c2C1)c1ccccc1 | 19.6% | 21.2% | 42.2% | 46.2% | 31.6% | 27.6% | 3.43% | 13.8%
C=CC(=O)Nc1cccc(Sc2nc(Nc3ccc(N4CCN(C)CC4)cc3)ncc2Cl)c1 | 49.2% | 28.3% | 56.3% | 29% | 38.9% | 13.3% | 5.26% | 3.82%
CS(=O)(=O)N1CCN(Cc2cc3nc(-c4cccc5[nH]ncc45)nc(N4CCOCC4)c3s2)CC1 [GDC-0941 bismesylate, RG-7321, Pictilisib] | 22.6% | 27.3% | 20.2% | 39.8% | 11.6% | 14.1% | 1.06% | 2.15%
O=C1NCCc2[nH]c(-c3ccncc3)cc21 | 12.1% | 12.8% | 18.9% | 15.5% | 5.26% | 8.94% | 1.8% | 5.16%
Cc1nn(C)c2nc(NNC(=O)Nc3cc(Cl)nc(Cl)c3)cc(C(C)C)c12 | 7.38% | 8.94% | 9.09% | 23.4% | 65.8% | 41.1% | 54.3% | 70.7%
CN(C)CCOc1cc(-c2cn[nH]c2)ccc1NC(=O)C1COc2ccccc2O1 (configuration not stated) | 18.6% | 19.3% | 41.4% | 43.4% | 0.48% | 6.42% | 0.59% | 2.04%
CN1CCc2c(c3ccccc3n2Cc2ccc(C(=O)NO)cc2)C1 [Tubastatin A (trifluoroacetate salt)] | 25.7% | 37.2% | 28.6% | 30.1% | 28.3% | 9.3% | 25.8% | 30.7%
COc1cc(Nc2ncc3c(n2)-c2ccc(Cl)cc2C(c2c(F)cccc2OC)=NC3)ccc1C(=O)O | 17.7% | 15.2% | 51.4% | 61.4% | 49.8% | 42% | 18.5% | 9.09%
